Drawing on article PMC8027411, this text covers binding for 15 molecules.

Amino acid sequences for entries named in this document (tags omitted). Residues count along the entry.
UniProt P11362, residues 22-822: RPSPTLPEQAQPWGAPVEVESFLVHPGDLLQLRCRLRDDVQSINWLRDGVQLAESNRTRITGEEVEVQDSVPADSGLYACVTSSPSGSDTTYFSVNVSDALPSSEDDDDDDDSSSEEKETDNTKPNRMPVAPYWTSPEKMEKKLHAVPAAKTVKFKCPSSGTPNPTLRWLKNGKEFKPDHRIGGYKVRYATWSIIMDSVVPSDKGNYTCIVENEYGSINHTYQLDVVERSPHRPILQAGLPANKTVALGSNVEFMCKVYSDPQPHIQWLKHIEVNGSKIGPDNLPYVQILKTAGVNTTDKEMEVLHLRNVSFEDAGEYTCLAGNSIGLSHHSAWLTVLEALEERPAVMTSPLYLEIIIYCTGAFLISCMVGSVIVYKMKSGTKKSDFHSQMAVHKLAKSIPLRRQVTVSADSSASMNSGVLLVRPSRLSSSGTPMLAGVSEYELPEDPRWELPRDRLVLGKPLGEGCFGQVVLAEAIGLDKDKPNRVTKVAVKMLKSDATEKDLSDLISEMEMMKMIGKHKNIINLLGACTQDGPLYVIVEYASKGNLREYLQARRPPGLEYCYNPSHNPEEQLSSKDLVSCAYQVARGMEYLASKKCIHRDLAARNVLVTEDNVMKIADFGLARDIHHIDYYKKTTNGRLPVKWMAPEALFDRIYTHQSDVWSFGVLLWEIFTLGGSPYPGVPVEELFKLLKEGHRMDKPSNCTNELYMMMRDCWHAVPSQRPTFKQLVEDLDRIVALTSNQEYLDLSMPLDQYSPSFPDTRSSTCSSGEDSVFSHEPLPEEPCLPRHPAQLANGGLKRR
UniProt P51149: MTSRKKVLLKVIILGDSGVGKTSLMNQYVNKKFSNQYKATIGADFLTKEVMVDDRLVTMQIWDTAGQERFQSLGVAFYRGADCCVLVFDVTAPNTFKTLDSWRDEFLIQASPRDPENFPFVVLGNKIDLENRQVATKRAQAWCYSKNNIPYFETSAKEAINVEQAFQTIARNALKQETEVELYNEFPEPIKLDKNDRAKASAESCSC
UniProt P21802, residues 22-821: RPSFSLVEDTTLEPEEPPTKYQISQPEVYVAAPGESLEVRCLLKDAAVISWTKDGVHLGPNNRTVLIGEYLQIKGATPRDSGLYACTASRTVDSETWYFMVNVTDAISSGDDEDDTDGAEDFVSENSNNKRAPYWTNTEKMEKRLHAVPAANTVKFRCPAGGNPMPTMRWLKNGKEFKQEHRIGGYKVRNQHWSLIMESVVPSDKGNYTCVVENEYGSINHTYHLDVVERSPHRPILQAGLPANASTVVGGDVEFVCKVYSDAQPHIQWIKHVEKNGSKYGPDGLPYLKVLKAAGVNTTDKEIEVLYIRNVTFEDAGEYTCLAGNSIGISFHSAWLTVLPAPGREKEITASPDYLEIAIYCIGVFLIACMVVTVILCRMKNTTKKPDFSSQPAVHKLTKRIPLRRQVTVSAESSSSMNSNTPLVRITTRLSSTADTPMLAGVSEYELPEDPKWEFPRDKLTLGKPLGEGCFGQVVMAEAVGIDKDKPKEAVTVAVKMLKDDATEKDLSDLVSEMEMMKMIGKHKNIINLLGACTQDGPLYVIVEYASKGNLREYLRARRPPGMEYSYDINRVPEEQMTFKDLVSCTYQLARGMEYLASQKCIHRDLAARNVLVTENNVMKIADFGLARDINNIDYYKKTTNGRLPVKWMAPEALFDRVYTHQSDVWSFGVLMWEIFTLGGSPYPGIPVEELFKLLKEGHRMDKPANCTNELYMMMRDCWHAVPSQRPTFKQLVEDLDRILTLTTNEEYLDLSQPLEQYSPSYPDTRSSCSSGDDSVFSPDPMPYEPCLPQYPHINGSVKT
UniProt Q16620, residues 32-822: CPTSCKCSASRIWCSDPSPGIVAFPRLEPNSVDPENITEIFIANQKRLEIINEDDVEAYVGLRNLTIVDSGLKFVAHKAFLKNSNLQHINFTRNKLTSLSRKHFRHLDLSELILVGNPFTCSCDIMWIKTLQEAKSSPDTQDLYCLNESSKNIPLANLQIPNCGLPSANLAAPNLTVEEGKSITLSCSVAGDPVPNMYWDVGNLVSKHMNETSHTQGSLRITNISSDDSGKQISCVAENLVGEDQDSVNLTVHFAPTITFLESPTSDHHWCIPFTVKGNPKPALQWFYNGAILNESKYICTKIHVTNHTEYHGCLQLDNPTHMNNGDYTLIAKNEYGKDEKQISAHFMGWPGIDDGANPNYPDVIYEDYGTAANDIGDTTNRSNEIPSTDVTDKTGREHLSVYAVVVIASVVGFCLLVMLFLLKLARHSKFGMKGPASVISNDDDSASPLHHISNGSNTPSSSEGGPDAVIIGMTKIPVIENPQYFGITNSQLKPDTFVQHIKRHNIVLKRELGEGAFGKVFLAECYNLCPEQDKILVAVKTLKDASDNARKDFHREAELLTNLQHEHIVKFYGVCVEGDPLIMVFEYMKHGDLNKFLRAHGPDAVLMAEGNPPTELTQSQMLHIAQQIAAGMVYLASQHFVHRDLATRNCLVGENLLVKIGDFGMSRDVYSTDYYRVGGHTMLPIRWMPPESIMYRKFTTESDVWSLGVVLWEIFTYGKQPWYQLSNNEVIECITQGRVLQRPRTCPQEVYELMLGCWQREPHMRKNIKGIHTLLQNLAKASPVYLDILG
UniProt P16234, residues 24-1089: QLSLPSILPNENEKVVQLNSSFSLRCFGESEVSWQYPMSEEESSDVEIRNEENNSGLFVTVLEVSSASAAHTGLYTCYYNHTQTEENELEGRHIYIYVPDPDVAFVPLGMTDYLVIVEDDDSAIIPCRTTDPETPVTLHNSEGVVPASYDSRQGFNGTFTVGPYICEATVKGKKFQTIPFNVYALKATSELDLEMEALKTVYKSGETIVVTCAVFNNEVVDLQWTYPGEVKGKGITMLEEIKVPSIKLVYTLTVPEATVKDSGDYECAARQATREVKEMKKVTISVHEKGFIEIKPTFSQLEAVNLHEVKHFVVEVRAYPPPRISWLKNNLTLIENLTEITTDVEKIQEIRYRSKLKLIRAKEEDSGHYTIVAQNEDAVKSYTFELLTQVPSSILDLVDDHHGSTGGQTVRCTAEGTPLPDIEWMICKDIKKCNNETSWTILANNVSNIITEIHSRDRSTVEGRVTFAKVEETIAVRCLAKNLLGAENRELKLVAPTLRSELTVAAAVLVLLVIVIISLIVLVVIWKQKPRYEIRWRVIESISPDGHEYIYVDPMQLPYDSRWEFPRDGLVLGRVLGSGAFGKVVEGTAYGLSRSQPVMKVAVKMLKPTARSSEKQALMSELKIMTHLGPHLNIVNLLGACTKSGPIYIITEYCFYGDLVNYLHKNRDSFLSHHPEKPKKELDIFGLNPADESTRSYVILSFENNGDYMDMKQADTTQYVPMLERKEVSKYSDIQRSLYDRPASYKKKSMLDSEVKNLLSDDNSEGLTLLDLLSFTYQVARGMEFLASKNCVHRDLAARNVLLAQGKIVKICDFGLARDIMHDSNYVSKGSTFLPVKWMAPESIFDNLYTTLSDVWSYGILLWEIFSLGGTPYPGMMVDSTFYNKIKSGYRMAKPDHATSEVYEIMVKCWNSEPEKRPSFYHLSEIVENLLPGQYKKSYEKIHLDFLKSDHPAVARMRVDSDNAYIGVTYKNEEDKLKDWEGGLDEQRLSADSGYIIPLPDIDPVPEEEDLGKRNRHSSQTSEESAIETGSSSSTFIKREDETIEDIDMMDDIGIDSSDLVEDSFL
UniProt P08581, residues 25-1390: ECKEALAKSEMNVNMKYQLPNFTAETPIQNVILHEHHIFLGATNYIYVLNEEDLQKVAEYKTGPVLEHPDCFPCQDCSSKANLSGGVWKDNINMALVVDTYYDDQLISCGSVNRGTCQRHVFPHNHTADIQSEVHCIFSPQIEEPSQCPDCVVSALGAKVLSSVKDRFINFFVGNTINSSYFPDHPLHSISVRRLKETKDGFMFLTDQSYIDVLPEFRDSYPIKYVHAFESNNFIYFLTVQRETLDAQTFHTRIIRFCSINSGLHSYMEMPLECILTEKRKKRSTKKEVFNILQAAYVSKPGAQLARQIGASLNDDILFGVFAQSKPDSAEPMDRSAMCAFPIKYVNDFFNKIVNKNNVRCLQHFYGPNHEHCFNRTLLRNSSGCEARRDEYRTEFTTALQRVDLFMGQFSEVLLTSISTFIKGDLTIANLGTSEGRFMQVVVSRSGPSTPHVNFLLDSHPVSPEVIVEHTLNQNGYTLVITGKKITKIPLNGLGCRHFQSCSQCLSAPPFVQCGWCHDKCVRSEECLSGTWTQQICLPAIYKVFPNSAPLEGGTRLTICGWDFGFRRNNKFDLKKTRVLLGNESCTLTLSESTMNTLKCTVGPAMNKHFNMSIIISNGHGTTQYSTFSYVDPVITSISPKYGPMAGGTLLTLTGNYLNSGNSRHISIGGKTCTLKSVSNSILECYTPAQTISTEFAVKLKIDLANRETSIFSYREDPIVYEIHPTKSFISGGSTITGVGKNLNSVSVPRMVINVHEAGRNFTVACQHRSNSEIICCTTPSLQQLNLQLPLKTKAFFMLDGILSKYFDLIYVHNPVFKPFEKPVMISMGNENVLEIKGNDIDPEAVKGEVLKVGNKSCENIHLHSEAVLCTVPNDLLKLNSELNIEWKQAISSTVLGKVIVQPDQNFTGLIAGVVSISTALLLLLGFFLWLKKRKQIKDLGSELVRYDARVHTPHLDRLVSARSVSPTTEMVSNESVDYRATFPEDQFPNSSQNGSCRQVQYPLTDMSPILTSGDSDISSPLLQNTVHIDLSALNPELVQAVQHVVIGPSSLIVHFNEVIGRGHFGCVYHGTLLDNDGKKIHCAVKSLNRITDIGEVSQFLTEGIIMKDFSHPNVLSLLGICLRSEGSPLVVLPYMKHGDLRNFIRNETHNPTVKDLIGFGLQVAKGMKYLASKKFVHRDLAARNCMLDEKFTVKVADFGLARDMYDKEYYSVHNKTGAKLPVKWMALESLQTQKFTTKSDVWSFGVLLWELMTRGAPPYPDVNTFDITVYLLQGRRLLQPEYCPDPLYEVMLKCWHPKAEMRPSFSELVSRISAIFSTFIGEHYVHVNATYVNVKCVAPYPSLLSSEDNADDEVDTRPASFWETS

Assay [1] addresses T1, FLOT1-Flag (human (cDNA from HEK-293T cells)) (UniProt O75955).
T1 sequence: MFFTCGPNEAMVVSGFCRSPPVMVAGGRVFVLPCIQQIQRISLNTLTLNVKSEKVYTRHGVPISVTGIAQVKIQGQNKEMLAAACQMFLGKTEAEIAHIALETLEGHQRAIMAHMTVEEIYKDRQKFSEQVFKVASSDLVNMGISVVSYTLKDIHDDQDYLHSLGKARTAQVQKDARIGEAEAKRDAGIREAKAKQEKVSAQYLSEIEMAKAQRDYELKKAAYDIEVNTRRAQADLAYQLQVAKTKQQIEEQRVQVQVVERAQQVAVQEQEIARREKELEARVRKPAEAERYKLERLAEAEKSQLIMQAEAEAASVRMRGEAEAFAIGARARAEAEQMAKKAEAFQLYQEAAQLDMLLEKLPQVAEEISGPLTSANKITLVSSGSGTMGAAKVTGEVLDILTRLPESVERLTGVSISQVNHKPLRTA
Put plainly: co-IP; tagged proteins co-expressed in transfected cells (HEK-293T in Fig. 4c, d), RIPA lysates, anti-Flag or anti-HA beads overnight at 4 °C, five washes; western blot.

For assay [2], the target named is T2, FLOT2-Flag (human (cDNA from HEK-293T cells)) (UniProt Q14254).
T2 sequence: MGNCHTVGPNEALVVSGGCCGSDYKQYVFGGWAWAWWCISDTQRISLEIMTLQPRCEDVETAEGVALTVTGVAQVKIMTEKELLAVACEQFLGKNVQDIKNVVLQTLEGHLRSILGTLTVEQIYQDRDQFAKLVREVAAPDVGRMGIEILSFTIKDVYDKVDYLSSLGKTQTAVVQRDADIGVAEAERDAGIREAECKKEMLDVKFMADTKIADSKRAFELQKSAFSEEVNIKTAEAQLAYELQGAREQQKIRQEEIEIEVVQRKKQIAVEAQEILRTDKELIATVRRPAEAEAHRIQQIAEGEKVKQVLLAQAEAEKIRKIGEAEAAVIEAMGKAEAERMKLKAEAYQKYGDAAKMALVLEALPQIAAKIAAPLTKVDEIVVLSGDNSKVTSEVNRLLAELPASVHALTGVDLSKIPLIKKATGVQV
The assay is described as above.

Assay [3] deals with T3, TBC1D2B (endogenous) (human (endogenous in NCI-H1975)) (UniProt Q9UPU7).
T3 sequence: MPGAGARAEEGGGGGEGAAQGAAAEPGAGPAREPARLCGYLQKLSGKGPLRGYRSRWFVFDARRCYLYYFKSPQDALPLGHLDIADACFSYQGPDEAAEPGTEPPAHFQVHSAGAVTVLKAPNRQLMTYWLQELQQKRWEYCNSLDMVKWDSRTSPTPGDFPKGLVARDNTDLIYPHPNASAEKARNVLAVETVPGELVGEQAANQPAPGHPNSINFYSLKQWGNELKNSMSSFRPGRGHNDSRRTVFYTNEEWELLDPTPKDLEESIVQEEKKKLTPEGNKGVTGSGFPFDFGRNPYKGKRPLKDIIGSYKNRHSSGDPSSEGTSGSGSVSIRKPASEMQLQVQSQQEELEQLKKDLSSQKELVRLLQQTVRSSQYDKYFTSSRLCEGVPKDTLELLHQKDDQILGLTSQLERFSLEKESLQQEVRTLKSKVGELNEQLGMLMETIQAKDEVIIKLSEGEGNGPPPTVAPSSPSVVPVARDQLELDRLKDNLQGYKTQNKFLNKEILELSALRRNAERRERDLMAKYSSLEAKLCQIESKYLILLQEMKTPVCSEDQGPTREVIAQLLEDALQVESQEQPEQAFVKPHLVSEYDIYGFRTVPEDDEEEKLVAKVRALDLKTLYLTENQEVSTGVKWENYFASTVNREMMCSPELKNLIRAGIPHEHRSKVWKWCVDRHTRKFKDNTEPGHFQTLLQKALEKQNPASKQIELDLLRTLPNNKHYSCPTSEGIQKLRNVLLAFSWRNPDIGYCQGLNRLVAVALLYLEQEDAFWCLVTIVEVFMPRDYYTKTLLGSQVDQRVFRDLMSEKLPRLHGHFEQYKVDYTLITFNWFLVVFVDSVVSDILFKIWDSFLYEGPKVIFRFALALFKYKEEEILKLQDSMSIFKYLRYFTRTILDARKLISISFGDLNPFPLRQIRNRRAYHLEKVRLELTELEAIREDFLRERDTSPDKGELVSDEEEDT
In words: co-IP; endogenous proteins, NCI-H1975 cell lysates in RIPA buffer (50 mM Tris-HCl pH 7.5, 150 mM NaCl, 1 mM EDTA, 1% NP40); EGFR, RAB31, FLOT1, FLOT2 or TBC1D2B antibody or control IgG with protein A or A/G agarose, overnight at 4 °C; western blot. In general terms: A western blot detects proteins with antibodies after separation by electrophoresis.

Assay [4] addresses T4, Flotillin1 (FLOT1), endogenous (human (endogenous in NCI-H1975)) (UniProt O75955).
T4 sequence: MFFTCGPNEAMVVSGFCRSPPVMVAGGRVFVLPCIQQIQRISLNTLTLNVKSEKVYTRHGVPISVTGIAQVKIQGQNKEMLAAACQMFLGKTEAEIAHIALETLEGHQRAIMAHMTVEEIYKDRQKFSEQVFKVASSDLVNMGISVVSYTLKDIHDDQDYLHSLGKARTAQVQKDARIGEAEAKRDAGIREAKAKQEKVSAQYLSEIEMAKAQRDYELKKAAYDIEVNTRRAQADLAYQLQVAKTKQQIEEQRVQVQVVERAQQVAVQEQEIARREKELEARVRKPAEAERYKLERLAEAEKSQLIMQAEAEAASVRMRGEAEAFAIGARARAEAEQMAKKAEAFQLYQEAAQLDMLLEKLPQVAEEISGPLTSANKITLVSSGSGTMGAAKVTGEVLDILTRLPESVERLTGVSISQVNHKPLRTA
The assay is described as above.

Assay [5] deals with T5, Flotillin2 (FLOT2), endogenous (human (endogenous in NCI-H1975)) (UniProt Q14254).
T5 sequence: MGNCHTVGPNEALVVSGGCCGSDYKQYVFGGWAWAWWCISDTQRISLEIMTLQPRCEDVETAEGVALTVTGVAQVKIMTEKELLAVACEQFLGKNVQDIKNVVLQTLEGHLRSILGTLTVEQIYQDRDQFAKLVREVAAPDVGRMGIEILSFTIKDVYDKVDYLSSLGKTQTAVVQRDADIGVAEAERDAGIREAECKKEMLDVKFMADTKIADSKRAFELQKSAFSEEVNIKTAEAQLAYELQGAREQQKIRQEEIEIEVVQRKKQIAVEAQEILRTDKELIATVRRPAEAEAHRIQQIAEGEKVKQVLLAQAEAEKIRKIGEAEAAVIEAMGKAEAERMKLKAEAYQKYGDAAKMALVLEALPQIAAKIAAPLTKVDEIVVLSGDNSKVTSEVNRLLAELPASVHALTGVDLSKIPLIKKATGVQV
Described as above.

The target in assay [6] is T6, Flag-RAB31^Q65L (constitutively active form of RAB31) (human (cDNA from HEK-293T cells)) (UniProt Q13636).
T6 sequence: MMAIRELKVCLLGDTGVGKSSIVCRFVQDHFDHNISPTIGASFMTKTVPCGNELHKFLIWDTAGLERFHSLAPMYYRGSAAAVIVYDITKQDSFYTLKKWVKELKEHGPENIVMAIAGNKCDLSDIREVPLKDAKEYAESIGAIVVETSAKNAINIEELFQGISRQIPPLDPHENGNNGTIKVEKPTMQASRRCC
Put plainly: co-IP; tagged proteins co-expressed in transfected cells (HEK-293T in Fig. 4c, d), RIPA lysates, anti-Flag or anti-HA beads overnight at 4 °C, five washes; western blot.

These are yes or no findings as the source states them, for the method shown. In cells and extracts the contact can be indirect. Some results given as binding are weak or reduced against the parent protein; the word gives no strength. For some assays here: Tags and fused reporters may be left off the sequences shown.

On to “HER2-HA (from UniProt P04626 23-1255) (receptor)”, for which the binding result in assay [1] and in assay [2] was “binds” in each case. Regarding “FGFR1-HA (from UniProt P11362 22-822) (receptor)”, the binding entry in assay [1] and in assay [2] was “binds” throughout. Take “RAB7 (endogenous) (from UniProt P51149 1-207)”: the binding result in assay [3] is on record as “binds”. With “FGFR2-HA (from UniProt P21802 22-821) (receptor)”, the binding entry in assay [1] and in assay [2] was “binds” each time. With “NTRK2-HA (from UniProt Q16620 32-822) (receptor)”, the binding result in assay [1] and in assay [2] was “binds” in each case. Regarding “PDGFR-α-HA (from UniProt P16234 24-1089) (receptor)”, the binding result in assay [1] and in assay [2] was “binds” each time. For the molecule “MET-HA (from UniProt P08581 25-1390) (receptor)”, the binding entry in assay [1] and in assay [2] was “binds” each time. In the case of “epidermal growth factor receptor (EGFR), endogenous in NCI-H1975 (EGFR^M2) (from UniProt P00533 25-1210)”, the binding entry in assay [4] and in assay [5] was “binds” throughout. Regarding “PDGFR-β-HA (from UniProt P09619 33-1106) (receptor)”, the binding result in assay [1] and in assay [2] was “binds” each time.

B1: FLOT2-SPFH-HA (domain or fragment, UniProt Q14254 1-192)
chain: MGNCHTVGPNEALVVSGGCCGSDYKQYVFGGWAWAWWCISDTQRISLEIMTLQPRCEDVETAEGVALTVTGVAQVKIMTEKELLAVACEQFLGKNVQDIKNVVLQTLEGHLRSILGTLTVEQIYQDRDQFAKLVREVAAPDVGRMGIEILSFTIKDVYDKVDYLSSLGKTQTAVVQRDADIGVAEAERDAGI
Regarding B1, the binding entry in assay [6] is “binds”.

B2: FLOT1-flotillin-HA (domain or fragment, UniProt O75955 190-427)
chain: REAKAKQEKVSAQYLSEIEMAKAQRDYELKKAAYDIEVNTRRAQADLAYQLQVAKTKQQIEEQRVQVQVVERAQQVAVQEQEIARREKELEARVRKPAEAERYKLERLAEAEKSQLIMQAEAEAASVRMRGEAEAFAIGARARAEAEQMAKKAEAFQLYQEAAQLDMLLEKLPQVAEEISGPLTSANKITLVSSGSGTMGAAKVTGEVLDILTRLPESVERLTGVSISQVNHKPLRTA
B2: in assay [6], the binding entry is given as “no binding”.

B3: FLOT1-SPFH-HA (domain or fragment, UniProt O75955 1-189)
chain: MFFTCGPNEAMVVSGFCRSPPVMVAGGRVFVLPCIQQIQRISLNTLTLNVKSEKVYTRHGVPISVTGIAQVKIQGQNKEMLAAACQMFLGKTEAEIAHIALETLEGHQRAIMAHMTVEEIYKDRQKFSEQVFKVASSDLVNMGISVVSYTLKDIHDDQDYLHSLGKARTAQVQKDARIGEAEAKRDAGI
As to B3, the binding entry in assay [6] was “binds”.

B4: FLOT2-HA (protein, UniProt Q14254 1-428)
chain: MGNCHTVGPNEALVVSGGCCGSDYKQYVFGGWAWAWWCISDTQRISLEIMTLQPRCEDVETAEGVALTVTGVAQVKIMTEKELLAVACEQFLGKNVQDIKNVVLQTLEGHLRSILGTLTVEQIYQDRDQFAKLVREVAAPDVGRMGIEILSFTIKDVYDKVDYLSSLGKTQTAVVQRDADIGVAEAERDAGIREAECKKEMLDVKFMADTKIADSKRAFELQKSAFSEEVNIKTAEAQLAYELQGAREQQKIRQEEIEIEVVQRKKQIAVEAQEILRTDKELIATVRRPAEAEAHRIQQIAEGEKVKQVLLAQAEAEKIRKIGEAEAAVIEAMGKAEAERMKLKAEAYQKYGDAAKMALVLEALPQIAAKIAAPLTKVDEIVVLSGDNSKVTSEVNRLLAELPASVHALTGVDLSKIPLIKKATGVQV
For the molecule B4, the binding result in assay [6] was “binds”.

B5: FLOT2-flotillin-HA (domain or fragment, UniProt Q14254 192-428)
chain: IREAECKKEMLDVKFMADTKIADSKRAFELQKSAFSEEVNIKTAEAQLAYELQGAREQQKIRQEEIEIEVVQRKKQIAVEAQEILRTDKELIATVRRPAEAEAHRIQQIAEGEKVKQVLLAQAEAEKIRKIGEAEAAVIEAMGKAEAERMKLKAEAYQKYGDAAKMALVLEALPQIAAKIAAPLTKVDEIVVLSGDNSKVTSEVNRLLAELPASVHALTGVDLSKIPLIKKATGVQV
Take B5: the binding result in assay [6] was “no binding”.

B6: FLOT1-HA (protein, UniProt O75955 1-427)
chain: MFFTCGPNEAMVVSGFCRSPPVMVAGGRVFVLPCIQQIQRISLNTLTLNVKSEKVYTRHGVPISVTGIAQVKIQGQNKEMLAAACQMFLGKTEAEIAHIALETLEGHQRAIMAHMTVEEIYKDRQKFSEQVFKVASSDLVNMGISVVSYTLKDIHDDQDYLHSLGKARTAQVQKDARIGEAEAKRDAGIREAKAKQEKVSAQYLSEIEMAKAQRDYELKKAAYDIEVNTRRAQADLAYQLQVAKTKQQIEEQRVQVQVVERAQQVAVQEQEIARREKELEARVRKPAEAERYKLERLAEAEKSQLIMQAEAEAASVRMRGEAEAFAIGARARAEAEQMAKKAEAFQLYQEAAQLDMLLEKLPQVAEEISGPLTSANKITLVSSGSGTMGAAKVTGEVLDILTRLPESVERLTGVSISQVNHKPLRTA
With B6, in assay [6], the binding entry is “binds”.
